From patent publication US9457029B2, “Treatment of genotyped diabetic patients with DPP-IV inhibitors such as linagliptin” (Boehringer Ingelheim International GmbH, priority 2009, dated 2016) come the findings set out here.

Series [1] has as its system inadequately controlled, metformin-treated type 2 diabetic patients. Description: 12-week randomized, double-blind study of BI 1356 add-on to metformin vs placebo or open label glimepiride. It counts as in vivo, human. Here is the method: Efficacy and safety of BI 1356 (1, 5, or 10 mg qd), a potent and selective dipeptidyl peptidase-4 (DPP-4) inhibitor, was examined in inadequately controlled, metformin-treated (MET, ≧1 g daily) type 2 diabetic patients (T2DM; HbA1c at baseline 7.5-10.0%). Effects were compared to add-on of placebo (PBO) or of open label glimepiride (GLIM; 1 to 3 mg qd) in a 12-week randomized, double-blind study. Antidiabetic medication other than metformin was washed out for 6 weeks (34.7% of the patients).
The primary endpoint was change from baseline in HbA1c, adjusted for prior antidiabetic medication. 333 patients (mean baseline HbA1c 8.3%; fasting plasma glucose [FPG] 185 mg/dL) were randomized to BI 1356, PBO or open-label GLIM. […] Reductions in FPG from baseline to Week 12 with BI 1356 were statistically significant (1 mg, −19 mg/dL; 5 mg, −35 mg/dL; 10 mg, −30 mg/dL). […] For this dose, >80% DPP-4 inhibition at trough in >80% of the patients at week 12 was achieved.
In total, 106 patients (43.1%) experienced adverse events (AEs) with similar incidences across all treatments. Most frequently reported episodes were nasopharyngitis (7.5%), diarrhoea (3.3%), and nausea (3.0%). […] Ten patients (3.7%) experienced serious AEs but none of these events were considered drug-related.

Series [2] relates to patients with type 2 diabetes mellitus. Description: 24-week placebo-controlled study of linagliptin monotherapy.
Series [3] concerns type 2 diabetes patients of TCF7L2 rs7903146 CC, CT or TT genotype. Put plainly: Association study of TCF7L2 SNP rs7903146 genotype and HbA1c response, pooled data over four studies (ANCOVA). In kind it is in vivo, human. The note with it: all investigated TCF7L2 genotype patients. The text has this: To assess the homogeneity of the treatment effect on the change from baseline of HbA1c after 24 weeks in the genotype subgroups defined by TCF7L2 SNP […] genotypes an analysis of covariance (ANCOVA) model including the treatment interaction with the covariate genotype is applied for pooled data over four studies. The statistical model includes 'Treatment', 'Genotype', 'Study', 'Wash-Out-Period for prior oral antidiabetic drugs (yes/no)', 'Race', as well as the interaction term 'Treatment*Genotype' as fixed effects and 'HbA1c baseline' as a linear covariate. […] Model based pair-wise comparisons between wild-type homozygous (genotype CC) and heterozygous (genotype CT) or rare homozygous (genotype TT) individuals on linagliptin or combination treatment (linagliptin+pioglitazone, linagliptin+metformin, linagliptin+metformin+a sulphonylurea) are performed. […] Results are shown as point estimates and 95% confidence intervals for the mean change in HbA1c from baseline [%] after 24 weeks as estimated by ANCOVA models. The results are given for the whole patient population of the studies (full analysis set, FAS), for the subpopulation for which genetic analyses are performed (full analysis set for pharmacogenetic analyses, FASG), as well as for the subgroups defined by genotype (CC, CT, TT) of this subpopulation. […]

Series [4] relates to Japanese patients with type 2 diabetes mellitus. Description: 12-week placebo-controlled study of linagliptin monotherapy in Japanese patients. It counts as in vivo, human. Here is the method:
Of those; 9.4%, 8.8% and 10.0%, respectively, are assessed as being drug-related. […] Body weight is unchanged with both LI 5 mg and 10 mg, −0.39 and −0.06 kg, respectively, which is not sigificantly different vs. PBO (−0.04 kg).

Regarding `CC#CCn1c(N2CCC[C@@H](N)C2)nc2c1c(=O)n(Cc1nc(C)c3ccccc3n1)c(=O)n2C` [linagliptin, 1-[(4-methyl-quinazolin-2-yl)methyl]-3-methyl-7-(2-butyn-1-yl)-8-(3-(R)-amino-piperidin-1-yl)-xanthine], the “reduction in FPG from baseline to Week 12” value in series [1] (BI 1356 10 mg qd add-on to metformin) is -30 mg/dL. The drug-related hypoglycaemia entry in series [1] (BI 1356 1, 5 or 10 mg qd add-on to metformin, 12 weeks) is “did not occur”. In series [1] (combination treatment with BI 1356 1, 5, and 10 mg and MET), the tolerability result is recorded as “well tolerated”. In series [2] (5 mg qd monotherapy), the “change in HOMA-% B index” value was 5.02 (mU/L)/(mmol/L) and the “change in disposition index” value worked out at 3.05. In addition, the “PBO-adjusted change in HbA1c from baseline” value in series [2] (5 mg qd monotherapy, 6 weeks) is −0.46%. Moreover, in series [2] (5 mg qd monotherapy, 24 weeks), the “FPG change vs. PBO” value is -23.3 mg/dL; the “PBO-adjusted change in HbA1c from baseline” value is recorded as −0.69%; the “changes in body weight or waist circumference” value was “no clinically significant changes”; the “hypoglycemia, number of patients” value is 1 patients. Also, in series [2] (5 mg qd monotherapy, 24 weeks), the “likelihood to achieve a reduction in HbA1c of ≧0.5% relative to PBO” value is over 4 fold, the “patients achieving a reduction in HbA1c of ≧0.5%” value came out at 47.1%, the “proportion of patients reporting at least one adverse event (AE)” value was determined as 52.4% and the “serious AEs” value was 3.0%. Further, in series [2] (5 mg qd, meal tolerance test, week 24), the “2-hr postprandial glucose (PPG), adjusted mean change from baseline vs. PBO” value was -58.4 mg/dL. Besides, the “patients achieving a target reduction of HbA1c to <7.0%” value in series [2] (5 mg qd, patients with baseline HbA1c ≧7.0%, 24 weeks) was determined as 25.2%. Further, the “reduction in HbA1c from baseline” value in series [2] (5 mg qd, patients with baseline HbA1c ≧9.0%) is −0.86%. Further, the “response in patients with TCF7L2 rs7903146 CT or TT risk genotype or CC wild genotype” value in series [3] is “clinically meaningful response”. Also, the investigator-defined hypoglycemic episodes result in series [4] (LI 5 mg and 10 mg, 12 weeks) was “no investigator-defined hypoglycemic episodes”. Moreover, the “difference of adjusted mean change from baseline in HbA1c vs. PBO” value in series [4] (LI 5 mg qd, week 12) is listed as −0.87%. Also, in series [4] (LI 5 mg, 12 weeks), the “AEs assessed as being drug-related” value was 9.4% and the body weight change is -0.39 kg. Further, in series [4] (LI 10 mg, 12 weeks), the “AEs assessed as being drug-related” value worked out at 8.8% and the “proportion of patients experiencing at least one adverse event (AE)” value was 53.1%.
